PubChem BioAssay AID485344 (National Center for Advancing Translational Sciences (NCATS), 2010)
In all, about 340,000 compounds went through this assay and about 6,900 (2%) were called active. No stated cut-off is given here; in the data, active means inhibition above about 30%; inactive means below that, where a call was filed. The entries are a selection whose mix differs from that of the whole data set. Entries without a call were filed so in the source.

The compounds below were run against D(2) dopamine receptor (Homo sapiens) (UniProt P14416) (assay: HTS Assay for Allosteric Antagonists of the Human D2 Dopamine Receptor: Primary Screen for Antagonists). Settings: HEK293 TREx D2 cells, calcium flux, dopamine EC80; at 10 µM; stronger effect = higher value.
In short: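 Read-out: kinetic calcium fluorescence (1 cycle/s) in inducible HEK293 T-REx D2 cells after an EC80 dopamine addition that followed 180 s compound preincubation. Loss of the dopamine response indicates antagonism.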
Further: 0% is about no effect.

Sequence of UniProt P14416 (P14416 whole entry, looked up): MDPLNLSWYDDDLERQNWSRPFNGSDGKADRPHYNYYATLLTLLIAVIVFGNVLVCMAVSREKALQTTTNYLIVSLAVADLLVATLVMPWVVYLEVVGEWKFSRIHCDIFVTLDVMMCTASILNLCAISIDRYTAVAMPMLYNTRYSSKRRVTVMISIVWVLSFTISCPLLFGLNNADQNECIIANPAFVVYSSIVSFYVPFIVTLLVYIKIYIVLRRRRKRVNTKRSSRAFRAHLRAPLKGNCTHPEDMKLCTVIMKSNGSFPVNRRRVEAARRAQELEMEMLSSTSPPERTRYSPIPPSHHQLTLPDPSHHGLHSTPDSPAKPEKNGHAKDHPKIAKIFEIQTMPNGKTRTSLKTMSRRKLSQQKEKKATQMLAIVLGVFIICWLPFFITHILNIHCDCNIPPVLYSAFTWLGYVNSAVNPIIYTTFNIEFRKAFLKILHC

Row | SMILES | inhibition
1 | Cc1ccc(CNC(=O)C(C)n2ccc3cc(S(=O)(=O)N4CCCC4)ccc32)cc1 (stereo not drawn) | 0.94%
2 | Cc1ccc(CCNC(=O)c2ccc(NC(=O)N3CCSc4ccccc43)cc2)cc1 | -11.5%
3 | CCOc1ccc2c(c1)c(=O)c(C(=O)c1ccc(CC)cc1)cn2CC(=O)Nc1ccccc1C | 21.7%
4 | COc1ccc(N2CCN(c3cc(C)nc4nncn34)CC2)cc1 | -10.9%
5 | O=C(NC1CCN(Cc2ccccc2)CC1)C12CC3CC(CC(C3)C1)C2 | active: 32%
6 | CCOC(=O)c1c(S(=O)(=O)N2CCC(C(=O)Nc3cccc(C)n3)CC2)c(C)n(C)c1C | -16.1%
7 | CCCN(C(=O)c1cc2c(=O)oc3ccccc3c2s1)c1ccccc1C | -24.1%
8 | CCC(C)NC(=O)Cn1c(=O)ccc2cc(S(=O)(=O)N3CCCC3)ccc21 (stereo not drawn) | 13.7%
9 | COc1ccc(/C=N\NC(=O)CCN2CCN(c3ccccc3)CC2)cc1OC | active: 56.4%
10 | COCC(=O)N1c2nc(-c3ccco3)nn2C2(CCCCC2)[C@@H]2CCCC[C@@H]21 | 12.9%
11 | Cc1ccc(NC(=O)Cn2nnc(C(=O)NCCc3ccccc3)c2N)cc1Cl | 10.2%
12 | CCOc1ccccc1NC(=O)c1ccc(CN2CCc3ccccc3C2)cc1 | active: 53.6%
13 | C=CCc1ccccc1OCC(O)CN1CCN(c2ccccc2F)CC1 (stereo not drawn) | active: 65.5%
14 | COc1ccc(NC(=O)Cc2noc3ccc(C)cc23)cc1Cl | -2.64%
15 | COc1cccc(N2CC(NC(=O)C3CC3)CC2=O)c1 (stereo not drawn) | 18.3%
16 | CCOc1ccccc1NC(=O)CN1C=NS(=O)(=O)c2ccccc21 | 3.12%
17 | Cc1ccc(CCNC(=O)c2ccc(CS(=O)(=O)Cc3ccccc3F)o2)cc1 | 5.44%
18 | Cc1ccc(C(=O)Nc2ccc3nc(N4CCCCC4)cc(C)c3c2)cc1F | -19.6%
19 | COc1cccc2cc(-c3nc(-c4ccc(C)cc4)c(C)s3)c(=O)oc12 | -1.08%
20 | Cc1ccc(NC(=O)CCNS(=O)(=O)c2ccc3c(c2)CCCC(=O)N3)cc1 | -5.99%
21 | CC(=O)c1ccc(N2C(=O)N(Cc3cc(C)ccc3C)c3ccccc3S2(=O)=O)cc1 | 19.8%

Row | SMILES | inhibition
22 | Cc1cc(Nc2ccc(F)cc2)nc(-n2nc(C)cc2C)n1 | 16.8%
23 | O=S(=O)(Nc1ccc(Cl)cc1)c1cccc(S(=O)(=O)c2ccc(Cl)c(Cl)c2)c1 | -7.49%
24 | OC(COCc1ccco1)CN1CCN(c2ccccc2)CC1 (stereo not drawn) | active: 74.4%
25 | Cc1ccc(C)c(N2CCN(CCCNC(=O)Nc3ccc(Cl)cc3)CC2)c1 | 8%
26 | Cc1cccc(NC(=O)C2CCCN(c3nc4ccccc4s3)C2)c1C (stereo not drawn) | 21.6%
27 | CCOC(=O)C1CCCN(C(=O)Cn2nc(CC)n3c(cc4occc43)c2=O)C1 (stereo not drawn) | 0.31%
28 | COc1ccccc1N1CCN(CC(O)COc2ccc(C)cc2C(C)(C)C)CC1 (stereo not drawn) | -28.3%
29 | CCOC(=O)c1c(C)oc2nc(C)nc(NCC3CCN(Cc4cccc(Cl)c4)CC3)c12 | -0.83%
30 | CCCCN(C)C(=O)Cn1c(SCC(=O)Nc2ccc(C)c(C)c2)nc2ccccc21 | 7.45%
31 | Cc1nc2ccccc2n1CCc1nc2c3ccccc3nc(SCc3ccc(F)cc3)n2n1 | 26.8%
32 | Cc1cccc(Nc2c3c(nc4nncn24)CCC3)c1C | 4.56%
33 | COc1ccc2c(c1)c1c(c(=O)n(-c3ccccc3C)c(=O)n1Cc1c(F)cccc1Cl)n2C | -3.55%
34 | Cc1cc(C)c(OCC(=O)N(Cc2cccc(F)c2)Cc2ccco2)c(C)c1 | 2.63%
35 | CC(=O)N1CCc2cc(S(=O)(=O)NC(Cc3ccccc3)C(=O)Nc3ccc(Cl)cc3)ccc21 (stereo not drawn) | -0.0478%
36 | CCc1nn(CC(=O)N2CCN(c3cccc(C(F)(F)F)c3)CC2)c(=O)c2cccn12 | 18.5%
37 | Cc1cccc(NC(=O)Cn2c(=O)oc3cc(S(=O)(=O)NC4CCCC4)ccc32)c1 | -10.5%
38 | CCOC(=O)c1ccc(NS(=O)(=O)c2ccc3[nH]c4c(c3c2)CCCCC4)cc1 | -1.22%
39 | Fc1ccc(CNCc2ccc(Br)cc2)cc1 | active: 48.7%
40 | Nc1ccccc1SCc1ccccc1 | active: 30.7%
41 | CC(=O)N1CCCc2cc(S(=O)(=O)Nc3ccc(C)c(F)c3)ccc21 | -0.922%
42 | Cc1oc2c(c(C)cc3oc(=O)c(CC(=O)NCc4ccc(F)cc4)c(C)c32)c1C | -4.52%

Row | SMILES | inhibition
43 | COc1ccc(C2C(=O)N(C3CCC(C)CC3)CC(=O)N2CCC2=CCCCC2)cc1OC (stereo not drawn) | 9.22%
44 | Cc1cccc(C)c1NC(=O)CN1C(=O)c2cccc3cccc1c23 | 16.2%
45 | CCOc1ccc(NC(=O)CN2C(=O)C3(SCC(=O)N3c3ccc(F)cc3)c3ccccc32)cc1 (stereo not drawn) | -0.1%
46 | COc1ccc(CNc2oc(-c3ccc(COc4ccc(OC)cc4)o3)nc2C#N)cc1 | 13.1%
47 | CCc1ccc2nc(N3CCN(C(=O)C4CC4)CC3)sc2c1 | -25.8%
48 | CCOc1ccccc1NC(=O)Cn1c2ncccc2c(=O)n1-c1ccc(C)c(C)c1 | -2.5%
49 | Cc1oc(-c2ccc(C(=O)Nc3ccccc3F)cc2)nc1COc1ccccc1 | -5.86%
50 | CCN1C(=O)C(Cc2nc3ccccc3c(=O)n2-c2ccccc2)c2cc(Br)ccc21 (stereo not drawn) | 5%
51 | COc1ccc(C)cc1NC(=O)CSc1nc(=O)n(Cc2ccccn2)c2c1CCC2 | 19.2%
52 | N#Cc1ccccc1NC(=O)c1cnc(N2CCOCC2)c2ccccc12 | -16.8%
53 | CCc1ccc(N(C)S(=O)(=O)c2ccc3[nH]cc(C(=O)NCC4CCCO4)c(=O)c3c2)cc1 (stereo not drawn) | -3.16%
54 | CCC(=O)N1CCc2cc(Br)cc(S(=O)(=O)CCC(=O)NCc3ccc(F)cc3)c21 | -5.23%
55 | CC(=O)N1CCOc2cc(S(=O)(=O)N(C)Cc3ccccc3)c(Cl)cc21 | 16.8%
56 | COc1ccccc1-c1nnc(C2CCN(C(=O)c3ccc(Cl)cc3)CC2)o1 | 16.2%
57 | Cc1ccc(Cn2c(CNC(=O)c3cccc(C)c3)nc3ccccc32)cc1 | -6.83%
58 | COc1cccc2c1Oc1ncccc1N(C(=O)CCC(=O)NCc1ccc(C)cc1)C2 | -9.3%
59 | Cc1ccc(-n2nc3c(=O)n(CCCC(=O)NCc4ccccc4F)nc(C)c3c2C)cc1 | 9.09%
60 | O=C(Nc1c(C(=O)N2CCN(c3ccccc3F)CC2)oc2ccccc12)c1ccccc1F | 5.43%
61 | Cc1csc2nc(COC(=O)CNC(=O)c3ccccc3Cl)cc(=O)n12 | 11.1%
62 | O=C(CN1CCCN(Cc2ccc(F)cc2)S1(=O)=O)NCc1ccccc1Cl | -7.15%
63 | CN1CCN(CCCNC(=O)c2ccc3nc(Cc4ccccc4)oc3c2)CC1 | 6.68%
